Data taken from the supplement of paper PMC4967469.
By IC50 is meant the dose at which the fit gives 50% viability; a limit (>, <) means that the fit lies beyond the doses tested. AUC, from the same fit, is the share of area under the viability curve across the 256-fold dose range; it is 1 without any effect and falls as sensitivity rises. For some assays here: Any top dose called inferred is not printed in the source and was worked back from the curve model.

Legend:
Assay in all cases: Viability of human cancer cell lines after 72 h of drug (GDSC screen)
BMX-IN-1 (QL-XII-61) = compound: C=CC(=O)Nc1cc(-n2c(=O)ccc3cnc4ccc(-c5ccc(NS(C)(=O)=O)cc5)cc4c32)ccc1C [BMX-IN-1 (QL-XII-61)]; details: top dose 10 µM; top dose inferred
Description: (§1)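 Human cancer cell lines in 384-well plates, medium with 10% serum, drug for 72 h over a 256-fold dose range (nine 2-fold or five 4-fold steps up to the top dose). Adherent lines were fixed and stained with the nucleic acid dye Syto60, suspension lines read with resazurin; signal relative to control wells, capped at 0 and 100%. One two-parameter sigmoid per drug and line, fitted in a mixed model over all curves with the slope shared within a line.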

17-AAG = compound: C=CCNC1=C2C[C@@H](C)C[C@H](OC)[C@H](O)[C@@H](C)/C=C(\C)[C@H](OC(N)=O)[C@@H](OC)/C=C\C=C(/C)C(=O)NC(=CC1=O)C2=O [17-AAG]; details: top dose 1 µM
Description: as §1

CCT018159 = compound: CCc1cc(-c2n[nH]c(C)c2-c2ccc3c(c2)OCCO3)c(O)cc1O [CCT018159]; details: top dose 10 µM; top dose inferred
Description: as §1

BIX02189 = compound: CN(C)Cc1cccc(N=C(c2ccccc2)c2c(O)[nH]c3cc(C(=O)N(C)C)ccc23)c1 [BIX02189]; details: top dose 20 µM; top dose inferred
Description: as §1

Dimethyloxalylglycine = compound: COC(=O)CNC(=O)C(=O)OC [Dimethyloxalylglycine]; details: top dose 4000 µM; top dose inferred
Description: as §1

Doxorubicin = compound: COc1cccc2c1C(=O)c1c(O)c3c(c(O)c1C2=O)C[C@@](O)(C(=O)CO)C[C@@H]3O[C@H]1C[C@H](N)[C@H](O)[C@H](C)O1 [Doxorubicin]; details: top dose 1.024 µM
Description: as §1

OSI-027 = compound: COc1cccc2cc(-c3nc([C@H]4CC[C@H](C(=O)O)CC4)n4ncnc(N)c34)[nH]c12 [OSI-027]; details: top dose 20 µM
Description: as §1

Vismodegib = compound: CS(=O)(=O)c1ccc(C(=O)Nc2ccc(Cl)c(-c3ccccn3)c2)c(Cl)c1 [Vismodegib]; details: top dose 10 µM; top dose inferred
Description: as §1

VX-11e = compound: Cc1cnc(Nc2ccc(F)cc2Cl)nc1-c1c[nH]c(C(=O)N[C@H](CO)c2cccc(Cl)c2)c1 [VX-11e]; details: top dose 5.12 µM; top dose inferred
Description: as §1

TG101348 = compound: Cc1cnc(Nc2ccc(OCCN3CCCC3)cc2)nc1Nc1cccc(S(=O)(=O)NC(C)(C)C)c1 [TG101348]; details: top dose 10.24 µM
Description: as §1

UNC1215 = compound: O=C(c1ccc(C(=O)N2CCC(N3CCCC3)CC2)c(Nc2ccccc2)c1)N1CCC(N2CCCC2)CC1 [UNC1215]; details: top dose 1 µM; top dose inferred
Description: as §1

Cell Line	AUC (BMX-IN-1 (QL-XII-61))	IC50 (BMX-IN-1 (QL-XII-61))	AUC (17-AAG)	IC50 (17-AAG)	AUC (CCT018159)	IC50 (CCT018159)	AUC (BIX02189)	IC50 (BIX02189)	AUC (Dimethyloxalylglycine)	IC50 (Dimethyloxalylglycine)	AUC (Doxorubicin)	IC50 (Doxorubicin)	AUC (OSI-027)	IC50 (OSI-027)	AUC (Vismodegib)	IC50 (Vismodegib)	AUC (VX-11e)	IC50 (VX-11e)	AUC (TG101348)	IC50 (TG101348)	AUC (UNC1215)	IC50 (UNC1215)
MFM-223 (breast, adherent)	0.988	> 10 µM	0.724	0.267 µM	0.959	> 10 µM	0.931	> 20 µM	0.884	> 4000 µM	0.989	> 1.02 µM	0.79	8.84 µM	0.97	> 10 µM	0.988	> 5.12 µM	0.918	> 10.2 µM	0.985	> 1 µM
NCI-H1395 (lung adenocarcinoma, adherent)	0.979	> 10 µM	0.63	0.161 µM	0.966	> 10 µM	0.949	> 20 µM	0.921	> 4000 µM	0.955	> 1.02 µM	0.85	> 20 µM	0.982	> 10 µM	0.978	> 5.12 µM	0.763	4.89 µM	0.98	> 1 µM
HARA (lung squamous cell carcinoma, adherent)	0.97	> 10 µM	0.601	0.124 µM	0.872	> 10 µM	0.926	> 20 µM	0.641	656 µM	0.63	0.155 µM	0.328	0.38 µM	0.983	> 10 µM	0.928	> 5.12 µM	0.837	8.53 µM	0.981	> 1 µM
DoTc2-4510 (cervix, adherent)	0.87	8.53 µM	0.723	0.258 µM	0.881	9.51 µM	0.982	> 20 µM	0.427	160 µM	0.415	0.038 µM	0.922	> 20 µM	0.975	> 10 µM	0.968	> 5.12 µM	0.936	> 10.2 µM	0.986	> 1 µM
COR-L23 (large cell lung carcinoma, adherent)	0.972	> 10 µM	0.821	0.561 µM	0.845	6.95 µM	0.928	> 20 µM	0.793	1770 µM	0.403	0.035 µM	0.38	0.59 µM	0.968	> 10 µM	0.896	> 5.12 µM	0.817	5.54 µM	0.984	> 1 µM
HuO9 (osteosarcoma, adherent)	0.97	> 10 µM	0.547	0.0852 µM	0.764		0.969	> 20 µM	0.627	582 µM	0.92	> 1.02 µM	0.578	2.09 µM	0.952	> 10 µM	0.984	> 5.12 µM	0.592	1.17 µM	0.982	> 1 µM
ALL-PO (lymphoblastic leukaemia, suspension)	0.979	> 10 µM	0.832	0.692 µM	0.913	> 10 µM	0.465	0.998 µM	0.316	74.1 µM	0.498	0.0632 µM	0.242	0.214 µM	0.853	8.52 µM	0.816	3.05 µM	0.27	0.135 µM	0.981	> 1 µM
KYSE-450 (oesophagus, adherent)	0.98	> 10 µM	0.94	> 1 µM	0.925	> 10 µM	0.866	16.2 µM	0.765	1390 µM	0.43	0.0417 µM	0.169	0.134 µM	0.988	> 10 µM	0.815	2.61 µM	0.638	1.51 µM	0.987	> 1 µM
OVTOKO (ovary, adherent)	0.965	> 10 µM	0.642	0.172 µM	0.874	> 10 µM	0.955	> 20 µM	0.48	217 µM	0.712	0.304 µM	0.692	5.06 µM	0.963	> 10 µM	0.947	> 5.12 µM	0.784	5.66 µM	0.977	> 1 µM
NOS-1 (osteosarcoma, adherent)	0.977	> 10 µM	0.86	> 1 µM	0.876	> 10 µM	0.789	11.1 µM	0.657	760 µM	0.54	0.0846 µM	0.235	0.174 µM	0.916	> 10 µM	0.957	> 5.12 µM	0.341	0.208 µM	0.977	> 1 µM
D-542MG (glioma, adherent)	0.954	> 10 µM	0.938	> 1 µM	0.964	> 10 µM	0.982	> 20 µM	0.554	364 µM	0.835	0.894 µM	0.859	> 20 µM	0.984	> 10 µM	0.982	> 5.12 µM	0.93	> 10.2 µM	0.981	> 1 µM
ES8 (Ewing sarcoma, adherent)	0.949	> 10 µM	0.599	0.114 µM	0.88	9.02 µM	0.848	13.2 µM	0.671	717 µM	0.352	0.0258 µM	0.167	0.134 µM	0.978	> 10 µM	0.915	> 5.12 µM	0.641	1.52 µM	0.986	> 1 µM
